Measurements as given in PubChem BioAssay (NCI).
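Exposure lasted 48 hours, with cells grown in 96-well plates and compounds tested at five concentrations. GI50 is the concentration that inhibits growth by half. Definition used: TGI = concentration required for complete inhibition of growth.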

Test system: NCI-H322M lung
Experiment: growth of human tumour cells (NCI), 48 h

| Compound | GI50 [µM] | TGI [µM] |
| --- | --- | --- |
| Cn1cc(-c2cc(N)n3nc(-c4cn(C)c5ncc(Br)cc45)cc3n2)c2cc(Br)cnc21 | 11.6 | 35.4 |
| O=C(N=Nc1c(O)[nH]c2ccc(Cl)cc12)c1ccc2nc(-c3ccc(Cl)cc3)[nH]c2c1 | 13.9 | > 57.7 |
| O=C(CN1CCN(c2ncnc3c2cnn3-c2ccccc2)CC1)Nc1nncs1 | 14.4 | 27.5 |
